In PubChem BioAssay AID894 (National Center for Advancing Translational Sciences (NCATS), 2007):
Hit rate of the full screen: of about 150,000 compounds, about 6,500 (4.3%) were called active. The shares of active, inactive and inconclusive entries below differ from those in the screen. Calls follow the shape of the dose curve; as a rule, active = well fitted inhibition curve with a large enough effect (not every such curve was filed as active); inconclusive = small, poorly fitted or top-dose-only effect, or another doubt; inactive = no such curve, though single readings can be large or run the other way. Where the call is inconclusive, the potency comes from a doubtful curve fit.

molecular target: 15-hydroxyprostaglandin dehydrogenase [NAD(+)] (Homo sapiens) (UniProt P15428); test: qHTS Assay for Inhibitors of HPGD (15-Hydroxyprostaglandin Dehydrogenase); settings: purified HPGD, NADH fluorescence kinetic, PGE2 substrate; activity change, negative = inhibition: hits give low values
Sequence of UniProt P15428 (P15428 whole entry, looked up): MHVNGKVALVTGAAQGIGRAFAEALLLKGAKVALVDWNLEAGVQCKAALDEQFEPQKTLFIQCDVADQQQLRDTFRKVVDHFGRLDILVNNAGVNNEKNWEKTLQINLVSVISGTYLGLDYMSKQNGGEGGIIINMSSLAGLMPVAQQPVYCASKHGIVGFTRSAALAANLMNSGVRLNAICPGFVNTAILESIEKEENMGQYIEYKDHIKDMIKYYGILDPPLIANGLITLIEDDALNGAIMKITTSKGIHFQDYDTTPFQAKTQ
Method in brief: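 NADH formation kinetics: reaction with 30 uM PGE2 and 1 mM NAD+ (final), 20 nM enzyme, Tris-HCl pH 8 with Tween 20, after 15 min compound preincubation at room temperature. Fluorescence change, last versus first of five reads.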
% is scaled to controls: 0 for no effect and ±100 for the full control effect; potency is read from the fitted curve at half-maximal effect; tags tell the direction and shape of the fitted curve.

Potency, inconclusive:
c1ccn2c(c1)nc1c2nc2ccccn21 31.6 µM [inhibitor, partial curve]
CCN(C(=O)COC(=O)c1cc(-c2ccccc2)nc2c1c(C)nn2-c1ccccc1)C1CCS(=O)(=O)C1 (stereo not given) 39.8 µM [inhibitor, single point]
CCOc1ccc(C2Nc3ccc4ccccc4c3-c3c2c(=O)oc2ccccc32)cc1 (stereo not given) 20 µM [inhibitor, partial curve]
CSc1nc2oc3c(c2c2nncn12)CC(C)(C)SC3 31.6 µM [inhibitor, partial curve]
C=CCn1cnc2c(c1=O)c1nc3ccccc3nc1n2-c1ccccc1 12.6 µM [inhibitor, partial curve]
CCC1CCCN1Cn1cnc2c([nH]c3ccc(OC)cc32)c1=O (stereo not given) 25.1 µM [inhibitor, partial curve]
CCOC(=O)COc1ccc2nsnc2c1Cl 28.2 µM [inhibitor, partial curve]
CN1c2ccsc2C(O)=C(C(=S)Nc2ccc(F)c(Cl)c2)S1(=O)=O 35.5 µM [inhibitor, single point]
COc1cccc(-c2cnc(OC(C)(C)C)nc2OC(C)(C)C)c1 39.8 µM [inhibitor, single point]
CCOC(=O)c1c(-c2ccccc2)oc2ccc(OC)cc12 31.6 µM [inhibitor, partial curve]
Cc1cccc(Nc2ccccc2C(=O)OCC(=O)N2CCOCC2)c1C 28.2 µM [inhibitor, single point]
Cc1nc(SCC(=O)N2CCN(c3ccccc3)CC2)c2oc3ccccc3c2n1 35.5 µM [inhibitor, single point]
CCCC(=O)Nc1cc(-c2cn3cccnc3n2)ccc1OC 28.2 µM [inhibitor, partial curve]
COc1ccc2cc3c(N)nn(C(=O)C4CCC(C(C)(C)C)CC4)c3nc2c1 (stereo not given) 39.8 µM [inhibitor, single point]
COc1ccc(-c2ccc(-c3nnc(-c4cc(OC)ccc4OC)o3)cc2)cc1 28.2 µM [inhibitor, partial curve]
Cn1nnc(NC(=S)NC(=O)c2cccs2)n1 31.6 µM [inhibitor, single point]
Cn1cc(/C=N/n2cnc3sc4c(c3c2=O)CCCC4)c2ccccc21 28.2 µM [inhibitor, single point]
COc1ccc(C(=O)Nc2ccc3nc(N4CCCCC4)cc(C)c3c2)c(OC)c1 28.2 µM [inhibitor, partial curve]
COc1ccccc1N1C(=O)C2C(c3ccccc3F)NN(C(=O)c3ccc(C)cc3)C2C1=O (stereo not given) 35.5 µM [inhibitor, single point]
Cc1ccc(-n2c(=O)c3sccc3n(Cc3cc(=O)n4ccccc4n3)c2=O)cc1 28.2 µM [inhibitor, partial curve]
NC(=O)c1cc2nc(-c3ccco3)cc(C(F)(F)F)n2n1 35.5 µM [inhibitor, partial curve, poor fit]
COc1ccc(-c2csc3nc(-c4cccnc4)nc(Cl)c23)cc1OC 28.2 µM [inhibitor, partial curve]
C(=N\n1cnnc1)/c1ccc2c(c1)OCCO2 20 µM [inhibitor, partial curve]
O=C(N/N=C/c1cc([N+](=O)[O-])cc([N+](=O)[O-])c1O)/C(=C\c1cccs1)NC(=O)c1ccccc1 25.1 µM [inhibitor, partial curve, poor fit]
Cc1ccc(-c2cc(C(F)F)n3ncc(C(=O)N4CCN5CCCC5C4)c3n2)cc1 (stereo not given) 25.1 µM [inhibitor, partial curve]
CCOC(=O)c1cc(-c2ccc3c(c2)OCCO3)nc2c1c(C)nn2CCC#N 35.5 µM [inhibitor, partial curve]
C#CCOc1ccc(Cl)cc1/C=N/O 15.8 µM [inhibitor, partial curve]
COc1ccc(-c2[nH]ncc2/C=N\NC(=O)c2ccc(C(C)(C)C)cc2)cc1OC 28.2 µM [inhibitor, partial curve]
CCCCCC(=O)Nc1c(-c2ccc(OC)cc2)c(=O)c2ccccc2n1C 25.1 µM [inhibitor, partial curve]
Cc1ccc(/C=C/C(=O)Nc2sc(C)c(C)c2C(=O)OC(C)C)o1 31.6 µM [inhibitor, partial curve]
Cn1c2ccc(CC(=O)O)cc2c2cc(CC(=O)O)ccc21 31.6 µM [inhibitor, partial curve]
Cc1cc(C)c(-c2cc(C(F)(F)F)no2)c(=O)[nH]1 28.2 µM [inhibitor, partial curve]
COC(=O)CSc1nc2ccccc2nc1SCC(=O)OC 35.5 µM [inhibitor, single point]
CCC(=O)Nc1ccc(-c2nnc(SCc3ccc(C(=O)Nc4nccs4)cc3)n2CC)cc1 15.8 µM [inhibitor, partial curve]
CCOC(=O)N1CCC(NC(=O)c2cc3c(-c4cccc(OC)c4)nn(C)c3s2)CC1 28.2 µM [inhibitor, partial curve]
COc1ccc(-c2ccc(-c3noc(-c4ccccc4)n3)c(OC)n2)cc1 31.6 µM [inhibitor, partial curve]
c1cc2c3c(cccc3c1)C(N1CCCCCC1)=N2 31.6 µM [inhibitor, single point]
CCOc1ccc(CC(=O)Nc2c(C(=O)Nc3ccccc3)oc3ccccc23)cc1OCC 28.2 µM [inhibitor, partial curve]
CC(C)c1c(O)ccc2c1CCC1[C@@](C)(CO)CCC[C@@]21C (stereo not given in full) 31.6 µM [inhibitor, partial curve]
COc1ccccc1N1CCN(CC(O)COc2ccc3c(C)cc(=O)oc3c2)CC1 (stereo not given) 28.2 µM [inhibitor, partial curve]

Potency, active:
O=c1cc(-c2ccccc2Cl)oc2cc(O)cc(O)c12 17.8 µM
CCOC(=O)CSC1=NC(=O)/C(=C\c2ccc(OC(C)=O)cc2)S1 25.1 µM
O=C(CSc1nnc(-c2cccnc2)n1Cc1ccco1)c1ccccc1 15.8 µM
Cc1ccsc1C(=O)OCC(=O)NCc1ccc2c(c1)OCO2 12.6 µM
CCn1c2ccccc2c2cc(/C=N/n3cn[nH]c3=S)ccc21 15.8 µM
CC1CN(c2nc3ccccn3c(=O)c2/C=C(\C#N)S(=O)(=O)c2ccccc2)CC(C)O1 (stereo not given) 17.8 µM
CC(C)Cn1c(-c2ccc(F)cc2)n[nH]c1=S 28.2 µM
CCN(CC)c1ccc(/C=C2\CCC(/C=C(\C#N)C(=O)Nc3ccccc3F)=C2N2CCOCC2)cc1 11.2 µM
O=C(NCc1ccccn1)c1cc(-c2ccccc2Cl)on1 14.1 µM
Cc1ccc(Cn2c(SCCN3CCCCC3)nc3c2c(=O)[nH]c(=O)n3C)cc1 28.2 µM
C=C[C@@H](C1=CC(=O)C(OC)=C(OC)C1=O)c1ccccc1 20 µM
Cc1oc2cc3c(C(=O)N4CCCCC4)c(C)oc3cc2c1C(=O)N1CCCCC1 4.47 µM

Activity change, negative = inhibition, inactive:
COc1ccccc1NC(=S)N(CCCN1CCOCC1)Cc1cn(C)c2ccccc12 -15.3%
CC(=O)Nc1ncc2c(n1)CC(c1ccco1)CC2=O (stereo not given) -7.37%
COc1ccc(C2=CC3=C(Br)C(=O)C(C)(OC(=O)c4cccs4)C(=O)C3=CO2)cc1 (stereo not given) -7.11%
COc1cc(Br)cc(CN2CCN(C/C=C/c3ccccc3)CC2)c1O -8.58%
Cc1ccc(N[C@H](c2ccccc2)c2ccc3cccnc3c2O)cc1 -6.88%
COCCCn1c(SCC(=O)NCc2ccccc2)nc2ccccc2c1=O -23.5%
COc1ccccc1N1CCN(C(c2cc3ccc(C)cc3[nH]c2=O)c2nnnn2C2CCCC2)CC1 (stereo not given) -15%
CCCCSCc1nc2nc(Cl)c(Cl)nc2[nH]1 10.8%
COc1cc(C(=O)Nc2nnc(CC(C)(C)C)s2)c([N+](=O)[O-])cc1OC -13.8%
Cc1ccc(OCCC(=O)Nc2ccc(F)c(Cl)c2)cc1 -5.95%
CCCCCOc1ccc2oc(=O)c3c(c2c1)CCCN3C(=O)CN1CCCC(C(=O)OCC)C1 (stereo not given) -12%
Cc1nc2cc3nc(C(F)(F)F)[nH]c3cc2[nH]1 60.1%
COc1ccc(NC(=O)c2ccc(F)cc2)cc1S(=O)(=O)Nc1cc(C)ccc1Br -12.1%
CC(C)(C)NC(=O)CN(C(=O)CSc1nnc(COc2ccccc2)o1)c1cccc(F)c1 -0.613%
O=c1onc(-c2cccs2)n1Cc1ccccc1 -5.59%
CCC(Sc1nc(-c2ccccc2)cc(=O)[nH]1)C(=O)O (stereo not given) -9.42%
Clc1ccc(-c2nnc(CNC3CC3)o2)cc1 -6.34%

Activity change, negative = inhibition, inconclusive:
Cc1ccc(C(=O)CC(=O)COc2ccc(Cl)cc2)cc1 -31.7% [inhibitor]
